For 21 compounds, cell viability results are on record in the supplement of paper PMC10600219.

Structures are written as SMILES. Where a name gives a salt, the structure may show the parent alone. Whole data set: some 2,800 compounds, median “cell viability relative to vehicle” near 0.98, cut for the lowest 2% near 0.45. Some of the results follow.

The assay concerns NCI-H2228 alectinib-DTP. Put plainly: cell viability relative to vehicle (fraction of vehicle); NCI-H2228 is an ALK-positive lung cancer line and DTP means drug-tolerant persister; higher = less growth inhibition. The note with it: 100 nM; treatment time 6 days. In a few lines: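 Parental NCI-H2228 cells and drug-tolerant persister cells (made with 1000 nM of a targeted drug for 13 days) were seeded in 384-well plates. The next day, the 3114-agent TargetMol anti-cancer compound library was added at 100 nM, with DMSO as vehicle. After 6 days, ATP was read with the CellTiter-Glo 3D Cell Viability Assay. Each value is cell viability relative to vehicle-treated cells.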
`O=c1cc[nH]c(=O)[nH]1` [Uracil] yielded a cell viability of 1.16.

For `CC1(C)C=Cc2c(ccc3c2OC[C@@H](c2ccc(O)cc2O)C3)O1` [Glabridin], the cell viability worked out at 1.02.

The compound `CCc1nc2c(C)cc(N3CCN(CC(=O)N4CC(O)C4)CC3)cn2c1N(C)c1nc(-c2ccc(F)cc2)c(C#N)s1` had a cell viability of 1.02.

In the case of `CC(C)=CCc1cc2c(cc1O)O[C@H](c1ccc(O)cc1)CC2=O` [Bavachin], the cell viability came out at 1.01.

`N#Cc1c(Oc2ccc(F)c(NC(=O)Cc3cccc(C(F)(F)F)c3)c2)ccc2nc(NC(=O)C3CC3)sc12`: the cell viability stood at 1.06.

`O=C1N=c2ccccc2=C1c1c(O)[nH]c2ccccc12` [Isoindigotin]: the cell viability is 0.934.

In turn, `O=C(O)c1ccc(C=C2SC(=S)N(c3cccc(C(F)(F)F)c3)C2=O)cc1` returned a cell viability of 1.03.

Take `COc1ccc(-c2cc(=O)c3c(OC)c(OC)c(OC)c(OC)c3o2)cc1` [Tangeretin]: the cell viability stood at 0.993.

`C/C(=N\NC(=O)c1cccc(S(=O)(=O)N2CCN(C)CC2)c1)c1cc(Cl)ccc1O` [Seclidemstat] came in with a cell viability of 0.783.

In turn, `OC[C@H]1O[C@@H](Oc2cc(O)cc(/C=C/c3ccc(O[C@@H]4O[C@H](CO)[C@@H](O)[C@H](O)[C@H]4O)cc3O)c2)[C@H](O)[C@@H](O)[C@@H]1O` [Mulberroside A] gave a cell viability of 1.1.

`CN1C(C(=O)Nc2ccccn2)=C(O)c2sc(Cl)cc2S1(=O)=O` [Lornoxicam] registered a cell viability of 1.03.

On to `NC[C@H]1OB(O)c2c(OCCCO)cccc21` [Epetraborole hydrochloride], for which the cell viability stood at 1.11.

`Cc1cc(C)nc(NS(=O)(=O)c2ccc(NC(=S)NC(=O)COc3ccc(Br)cc3Cl)cc2)n1` registered a cell viability of 0.789.

With `CCOc1ccc(Cc2nccc3cc(OCC)c(OCC)cc23)cc1OCC` [Ethaverine hydrochloride], the cell viability was found to be 1.05.

In turn, `O=C(Nc1ccc([N+](=O)[O-])cc1Cl)c1cc(Cl)ccc1O` [Niclosamide] had a cell viability of 0.995.

The compound `O=C(Nc1cccnc1)N1CCC(Cc2cccc(Oc3ccc(C(F)(F)F)cn3)c2)CC1` came in with a cell viability of 0.941.

The compound `Cc1cccc(-c2nn3c(c2-c2ccnc4ccc(C(N)=O)cc24)CCC3)n1` [Galunisertib] yielded a cell viability of 0.971.

`CC(C)c1nc(CN(C)C(=O)N[C@@H](CCN2CCOCC2)C(=O)N[C@H](CC[C@H](Cc2ccccc2)NC(=O)OCc2cncs2)Cc2ccccc2)cs1` [Cobicistat]: the cell viability was 1.02.

With `CCCCCCCC(=O)c1c(O)cc(O)cc1CC(=O)OCC` [Cytosporone B], the cell viability stood at 1.11.

For the compound `CC(CN(C)C)CN1c2ccccc2CCc2ccccc21` (stereo unspecified) [Trimipramine maleate], the cell viability turned out to be 1.03.

`CN1CCN(c2ccc(C(=O)Nc3cc(-c4cccc(NS(=O)(=O)c5ccccc5)c4)[nH]n3)cc2)CC1` had a cell viability of 0.98.
